# Measurements from the supplement of paper PMC12632987.
# In all, about 4,500 sequences were measured (“median log2 fold change of GCK-ALFA target abundance (FLAG IP / Myc IP barcode read proportion)”: median about 0.078, lowest 2% from about -0.6 on). Some of the results follow.
# B1: GBRAP_184_5356 (protein)
# chain: MTREVVIEADTIEEAIAKLRAAAAEAAAAGADLAVLIKVPINTVEDAEALIAALGEIQAAGVRIAVAGIEGVSNDEAIIDTLVDGAEAAGIRVVLALDEE
# B2: GBRAP_150_3903 (protein)
# chain: DLETLLILTSTAIDILEAILDGHYELLPHAVKVMKAALEEAENISEEVKELAKKALEHVEKALKLLKEGGKEEDIKAAVQKALELAEKLEEKIEKLIEEK
# B3: GBRAP_184_5264 (protein)
# chain: KVLERTVKAENVEELKAKLAEIRKEALATGADVIILLEVEELTEEMIDALFAQLKALRDAGYKGRITVGIDADLTEEMIDYVLKKADEAGVNVVVAISEE
# B4: GBRAP_106_2556 (protein)
# chain: ARAAALEAALAKARAAAAAERAATDAWLAAHRSELTPEEIEAIRTYTAKAAVGRLLRALVDAGLLTPEQARAIEREVLAQRGLDFEARLARAVALAREAA
# B5: GBRAP_128_3336 (protein)
# chain: MDEEKVKEIEELAEKIIEADDEEAKELAKKIAEKLVTLSLEEVEKAVEYLKKLLPKLSAEKLEILADVLEEKLPEFEPEKAEVVADLMVEALNLAEEKEE
# B6: GBRAP_128_3598 (protein)
# chain: SVEEVRKWTREQLEKMKEADEEERKEIAEELMARFLTLTPEEREAMVDTIKEEAPKLSEEDLEILADAARAARPLADAEAANLLADLEVELLNEAEEKEE
# B7: GBRAP_11_2722 (protein)
# chain: KKEELEKLAKRAEALAKEVAKLIKEGPDKEKIKKLQKEVEKLAEEAKKIGASEDVIKTLKIAAENLQKAIEDPENVEQHLKNAQAALRVAAGQLLLEAEE
# B8: GBRAP_160_4535 (protein)
# chain: SETLERFEKELRETAEEAIKLIKGETAEQRATIVDVEFGSFALELAEDPNASDEMVDVVLENRDKLVETILANPDLTDEELEELIRKTVEETIKELKKLF
# B9: GBRAP_83_6942 (protein)
# chain: KEEVVVAAPGDRIEEAAEIALDLQEEEGLEVVLEVLFTSEEREKVLEVLKKLIKEGFEGEILLLSLDRDKEGLEEAVEELKKKAEEEGVDVEVEGYVNEE
# B10: GBRAP_128_3575 (protein)
# chain: SSEATLAQARALIATIIAGDVATARAAARALVALLAAADPATAEQIVALVLAALPQLTVEKLETLADVFREARPQADPEVANLLAEIEVEALNEAVEKEE
# B11: GBRAP_9_7163 (protein)
# chain: LKELIDKIKEVVEDAFEEIKKVVPEEHRPVVDEERDKVLAELEKIAADPTITKEEAAERAKELLERAAEKIKAVVSPEIAKQVEAIVLTAKLEIEEIAEE
# B12: GBRAP_35_5541 (protein)
# chain: SSDETIVEMLVNTMEDLVLALPDVDNETFITLTEHLIRLAEDIVELKPKNLELIERAIEILERAIKIVKESDLPEETREELIKRLEELRKELEKIRKEVK
# B13: GBRAP_160_4791 (protein)
# chain: DERIERVARRFRESLEEALELAEGESPEERVAIFDVELGSAILELEEEGLLNDEEEEVAVEVRDELVARIAANPDLTPEELRALAEEAVERLRERLKELE
# B14: GBRAP_128_3396 (protein)
# chain: GQEEKVEKAKELIDEIVKSSVEEAEKLAREFAELFGTLDEESREEVAEYFESKLPELSAEKLDVVADVFREMRPKLDPYAANLMAGMEVDALNEAVEKEE
# B15: GBRAP_35_5599 (protein)
# chain: DTDQLAVDSLIDQIEATIAGIPEMDVDTLAAISNLLIKDAEELIKKEKNNLEALNRIAKALQALLDAIKKHHGDNATMQATAAKIQATIKEAEKVAQEIK
# B16: GBRAP_52_5943 (protein)
# chain: MHEKMRKLAEELLALALAGDEEGLEKLAKEIVENYSDEELLELARELGRLAKTLPVEDLDAAYRAVEVLIEELEEGGRSEELISEIEGIMARAMYERELA
# B17: GBRAP_80_6813 (protein)
# chain: MEEEIEKNLKEIAELDEELAKKVKEIVELARELGVPEEYIARFVKAVLELAKLDLEKANKLVEETLKKIKEAYAKGDQEDALATIVDAESEALLEVEELE
# B18: GBRAP_74_6527 (protein)
# chain: DAARLAALREAAEAGDVEAAVALAREIIATGSLAAIEEAARILVAFVERHRDSLTKEELLAVSDTLAELADRLMELGGDSETVIAVAQAAVELEKAALAL
# B19: GBRAP_52_6075 (protein)
# chain: SMEKIEEVANKIYEAIKEGNKEKALELLKEAIKNFSLEEITEILKLTAEKVASLGDEAHELFVDILDEGEDLLLEAGISEDDALLIVGDAEAALAKAVAA
# Target: GABARAP, O95166
# Sequence (O95166 whole entry, the tested form may be a part): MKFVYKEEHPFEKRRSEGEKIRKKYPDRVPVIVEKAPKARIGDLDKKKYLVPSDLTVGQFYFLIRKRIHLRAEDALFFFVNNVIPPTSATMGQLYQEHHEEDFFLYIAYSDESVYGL
# Experiment: median log2 fold change of GCK-ALFA target abundance (FLAG IP / Myc IP barcode read proportion) (log2 ratio); each designed protein is fused to an ALFA-tag nanobody in HEK293 cells to bring the named protein to FLAG-tagged glucokinase (GCK); Myc marks an untargeted standard; higher = target protein stabilised (more abundant)
# Settings: target protein: 3xFLAG-MCP-GCK-ALFA reporter; HEK293 landing pad (RPLP)
# Summary of the method: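 The readout is target abundance, the per-binder median log2 ratio of FLAG to Myc barcode read proportions. It came from HEK293 landing-pad cells carrying a recombined ALFA-nanobody-fused binder library, induced with 2 μg mL^−1 doxycycline and transfected with a plasmid for a FLAG-tagged target and a Myc-tagged standard. After 48 h, lysates were immunoprecipitated with anti-FLAG and anti-Myc, and circular RNA barcodes were reverse transcribed, amplified and sequenced. Each barcode needed a proportion of at least 10^−7 in both replicates and each binder at least 3 barcodes per replicate, a pseudocount of 10^−6 was added, and the replicates were pooled.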
row,Binder,median log2 fold change
1,B1,-0.249
2,B2,-0.0628
3,B3,-0.00736
4,B4,-0.476
5,B5,0.314
6,B6,0.155
7,B7,0.218
8,B8,0.0259
9,B9,-0.0326
10,B10,0.0727
11,B11,0.154
12,B12,-0.12
13,B13,-0.0265
14,B14,-0.0209
15,B15,0.16
16,B16,-0.0198
17,B17,0.24
18,B18,0.122
19,B19,-0.583
